In PMC9911399, “Two distinct binding modes provide the RNA-binding protein RbFox with extraordinary sequence specificity”:
Where a chain is given by its changes, count along the chain named. Some of the results follow.

T1: RBFOX1 RRM (Homo sapiens, UniProt Q9NWB1 109-208)
T1 sequence: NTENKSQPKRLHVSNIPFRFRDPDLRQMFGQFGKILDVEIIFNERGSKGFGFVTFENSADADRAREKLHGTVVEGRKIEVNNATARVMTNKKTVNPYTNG

B1: GACUAGG (DNA:RNA)
RNA: GGGAGACCGGAAUUCAGAUUGUCCGACUAGGUUAAAUCCCGUCGUAGCCACCA
DNA 1: CAATCTGAATTCCGGTCTCCC
DNA 2: TGGTGGCTACGACGGGATT
B2: CAGAAAC (DNA:RNA)
RNA: B1 RNA with G25C, C27G, U28A, G30A, G31C
DNA 1: CAATCTGAATTCCGGTCTCCC
DNA 2: TGGTGGCTACGACGGGATT
B3: CACUCUG (DNA:RNA)
RNA: B1 RNA with G25C, A29C, G30U
DNA 1: CAATCTGAATTCCGGTCTCCC
DNA 2: TGGTGGCTACGACGGGATT
B4: UUCUAAA (DNA:RNA)
RNA: B1 RNA with G25U, A26U, G30A, G31A
DNA 1: CAATCTGAATTCCGGTCTCCC
DNA 2: TGGTGGCTACGACGGGATT
B5: GAACGUG (DNA:RNA)
RNA: B1 RNA with C27A, U28C, A29G, G30U
DNA 1: CAATCTGAATTCCGGTCTCCC
DNA 2: TGGTGGCTACGACGGGATT
B6: CGGGCGC (DNA:RNA)
RNA: B1 RNA with G25C, A26G, C27G, U28G, A29C, G31C
DNA 1: CAATCTGAATTCCGGTCTCCC
DNA 2: TGGTGGCTACGACGGGATT
B7: AACCUUU (DNA:RNA)
RNA: B1 RNA with G25A, U28C, A29U, G30U, G31U
DNA 1: CAATCTGAATTCCGGTCTCCC
DNA 2: TGGTGGCTACGACGGGATT
B8: CCGAAGC (DNA:RNA)
RNA: B1 RNA with G25C, A26C, C27G, U28A, G31C
DNA 1: CAATCTGAATTCCGGTCTCCC
DNA 2: TGGTGGCTACGACGGGATT
B9: CGGUAUG (DNA:RNA)
RNA: B1 RNA with G25C, A26G, C27G, G30U
DNA 1: CAATCTGAATTCCGGTCTCCC
DNA 2: TGGTGGCTACGACGGGATT
B10: AUUUAGG (DNA:RNA)
RNA: B1 RNA with G25A, A26U, C27U
DNA 1: CAATCTGAATTCCGGTCTCCC
DNA 2: TGGTGGCTACGACGGGATT
B11: CAAGCGC (DNA:RNA)
RNA: B1 RNA with G25C, C27A, U28G, A29C, G31C
DNA 1: CAATCTGAATTCCGGTCTCCC
DNA 2: TGGTGGCTACGACGGGATT
B12: UCUGUGU (DNA:RNA)
RNA: B1 RNA with G25U, A26C, C27U, U28G, A29U, G31U
DNA 1: CAATCTGAATTCCGGTCTCCC
DNA 2: TGGTGGCTACGACGGGATT
B13: AUGGGAC (DNA:RNA)
RNA: GGGAGACCGGAAUUCAGAUUGUCCAUGGGACUUAAAUCCCGUCGUAGCCACCA
DNA 1: CAATCTGAATTCCGGTCTCCC
DNA 2: TGGTGGCTACGACGGGATT
B14: CUACUGU (DNA:RNA)
RNA: B13 RNA with A25C, G27A, G28C, G29U, A30G, C31U
DNA 1: CAATCTGAATTCCGGTCTCCC
DNA 2: TGGTGGCTACGACGGGATT
B15: ACGGAAC (DNA:RNA)
RNA: B13 RNA with U26C, G29A
DNA 1: CAATCTGAATTCCGGTCTCCC
DNA 2: TGGTGGCTACGACGGGATT
B16: UUCGCAC (DNA:RNA)
RNA: B13 RNA with A25U, G27C, G29C
DNA 1: CAATCTGAATTCCGGTCTCCC
DNA 2: TGGTGGCTACGACGGGATT
B17: UGCAUAA (DNA:RNA)
RNA: B13 RNA with A25U, U26G, G27C, G28A, G29U, C31A
DNA 1: CAATCTGAATTCCGGTCTCCC
DNA 2: TGGTGGCTACGACGGGATT
B18: UGCUGUC (DNA:RNA)
RNA: B13 RNA with A25U, U26G, G27C, G28U, A30U
DNA 1: CAATCTGAATTCCGGTCTCCC
DNA 2: TGGTGGCTACGACGGGATT
B19: AAAAGUA (DNA:RNA)
RNA: B13 RNA with U26A, G27A, G28A, A30U, C31A
DNA 1: CAATCTGAATTCCGGTCTCCC
DNA 2: TGGTGGCTACGACGGGATT
B20: UAGCGGC (DNA:RNA)
RNA: B13 RNA with A25U, U26A, G28C, A30G
DNA 1: CAATCTGAATTCCGGTCTCCC
DNA 2: TGGTGGCTACGACGGGATT

These binders were tested against T1, RBFOX1 RRM (assay: EMSA; HiTS-Eq, 1 nM pool, 10 min; buffer printed only for the single-RNA assays: 10 mM Tris pH 7.5, 150 mM NaCl, 3.4 mM EDTA, 0.001% NP-40, 30 C). Settings: tags: His6 N-terminal (pET28a); label: 5' 32P.
Procedure, shortened: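 A pool of RNA with 7 randomized nucleotides, 5′-radiolabelled and with DNA-annealed flanks, was equilibrated at 1 nM for 10 min in 50 µL with purified RbFox RRM, wild type or mutant, across increasing protein concentrations. Free RNA was separated by 8% native PAGE, excised, reverse-transcribed, barcoded by PCR and sequenced. Relative association constants were obtained from read-count changes of each RNA species versus the control reaction and normalised to the cognate motif.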

Binder	binding signal
B1	0.0112 KA relative to UGCAUGU
B2	0.00409 KA relative to UGCAUGU
B3	0.00834 KA relative to UGCAUGU
B4	0.00448 KA relative to UGCAUGU
B5	0.0225 KA relative to UGCAUGU
B6	0.0268 KA relative to UGCAUGU
B7	0.000589 KA relative to UGCAUGU
B8	0.0054 KA relative to UGCAUGU
B9	0.0195 KA relative to UGCAUGU
B10	0.00851 KA relative to UGCAUGU
B11	0.00567 KA relative to UGCAUGU
B12	0.0252 KA relative to UGCAUGU
B13	0.0085 KA relative to UGCAUGU
B14	0.0119 KA relative to UGCAUGU
B15	0.00946 KA relative to UGCAUGU
B16	0.019 KA relative to UGCAUGU
B17	0.00891 KA relative to UGCAUGU
B18	0.0229 KA relative to UGCAUGU
B19	0.00159 KA relative to UGCAUGU
B20	0.00814 KA relative to UGCAUGU
